In all, about 150,000 compounds went through this assay and about 540 (0.36%) showed an effect of 50% or more. The list shows a part of the results.
Each compound was assayed on Plasmodium falciparum (assay: Primary screen in NF54 nanoGlo assay, in single point, at 2uM, 72h; a lower Z score goes with more inhibition). Conditions: timepoint 72 hour.
Type: functional, Erythrocyte

SMILES	% Inhibition [%]	Z score
C[C@H]1CN(c2cccc(Cl)c2)C(=O)CN1C(=O)c1ccc(Cl)cc1F	-17	3.42
Cn1nc(C(=O)Nc2cccc3cccnc23)ccc1=O	-16	1.59
O=C(NCc1ccco1)c1cccc(S(=O)(=O)Nc2ccccc2-c2ccccc2)c1	-11	1.62
COc1nnc(NC(=O)NCc2cc(Br)cnc2OC)s1	-2	0.29
OCCOCCNCc1ccccc1F	5	-0.97
Cc1cc(=O)[nH]c(CNc2cc(CC(C)C)ncn2)n1	-8	1.1
C[C@H]1CN(Cc2ncccn2)CCC1(F)F	-10	1.27
N#CC1(C(=O)NCCC2=CCOCC2)CCCCC1	-5	0.75
COc1ccc(C(=O)N2CCC3(CC2)N[C@@H](C)C(=O)N3C2CC2)cc1	-6	0.69
Cc1[nH]c2ccc(NC(=O)c3ccccc3)cc2c1[C@H](Nc1ccccn1)c1ccccn1	-5	0.82
COCCCNc1ccc(F)cc1S(=O)(=O)NC1CC(C)C1 (configuration not stated)	-6	1.09
CCc1csc(CNC(=O)c2ccc(N(C)Cc3cnccn3)nc2)n1	-6	1.15
C[C@@H](Cc1ccsc1)NC(=O)N1CCOCC1	-6	0.61
C[C@@H](c1ccc2c(c1)OCCO2)N(C)C(=O)NCCc1nc(C2CC2)no1	-8	0.9
CCN(CCC(=O)NCC(C)C)C(=O)c1cc(C)oc1C	7	-0.69
COc1ccc(Cl)cc1CNCc1cnccc1N(C)C	-3	0.5
CC(C)c1noc(NC2CC3CCC2O3)n1 (configuration not stated)	17	-1.98
CCc1nnc(-c2c(C)c(S(=O)(=O)Nc3ccc(OC)cc3)c(C)n2C)o1	4	-0.61
CC(C)[C@@]1(CO)CCCN(Cc2nnnn2C)C1	-4	0.59

SMILES	% Inhibition [%]	Z score
NC(=O)NC(CC(=O)NCC1CC2c3ccccc3C1c1ccccc12)c1ccccc1Cl (configuration not stated)	-5	0.6
Cn1cnnc1C1CCCN(S(=O)(=O)[C@H]2C[C@@H]2c2ccccc2)C1 (some centres not stated)	-6	1.22
CC1CCC(NC(=O)NCCCn2ccnn2)C(C)C1 (configuration not stated)	-6	0.66
CN1CCn2ccnc2C12CCN(C(=O)Nc1ccccc1C(F)(F)F)CC2	-2	0.29
CC1CCN(C(=O)CCC(=O)N2CCCN(c3nc4cccnc4s3)CC2)CC1	-11	1.1
CC(C)CCN1CC(C)CC(C(=O)O)C1 (configuration not stated)	8	-1.1
CO[C@@H](CNC(=O)NC1CCCC1)c1ccc(C)s1	15	-1.95
CC(C)N(CC(O)COC1C2(C)CCC(C2)C1(C)C)C(C)C (configuration not stated)	28	-3.67
CCOCCC1(CN[C@@H](C)c2cn[nH]c2)CC1	-10	1.81
O=C(c1cccs1)N1CC[C@H](n2cnnc2-c2ccccc2)C1	3	-0.5
CC(C)OCCCNS(=O)(=O)N1CC(C)OC(C)C1 (configuration not stated)	-12	1.64
N#Cc1cccc(C(=O)N2CCC[C@H](c3nccn3CC3CC3)C2)c1	-5	0.99
CC(C)(C)OC(=O)N(CCCCNC(=O)CC#N)OCc1ccccc1	-11	2.13
CN(C)c1ccnc(C(=O)N2CCN([C@H](C#N)c3ccccc3)CC2)c1	-5	0.41
CCn1nncc1CNC1CCC2(CCOCC2)CC1	25	-2.78
O=C(NCCc1coc(-c2ccc(F)cc2)n1)c1ccc2nc3n(c2c1)CCC3	-1	0.08
CCc1nn(CCc2ccccn2)c(=O)c(C#N)c1CC	-9	1.03
CCCc1nc(N2CCCN(C(=O)C(C)C)CC2)c2c(C)nn(-c3ccccc3)c2n1	-7	0.65
Cc1ccc(S(=O)(=O)N[C@H]2CCN(c3nccs3)C2)cc1C	-8	1.58

SMILES	% Inhibition [%]	Z score
CCN1c2cc(C)ccc2-n2cccc2C12CCN(C(=O)Nc1cc(Cl)c(OC)cc1OC)CC2	-13	1.83
Cc1cnc(CCNC(=O)c2nccn2C)n1C1CC1	-4	0.67
COC(=O)c1cc(O)cc(C(=O)N(C)CCC2(O)CCCC2)c1	-12	2.08
COc1ccc(CCc2nc(NC(=O)C(C)C)n[nH]2)cc1OC	13	-1.63
CC[C@H](C)OCC(=O)N1CCCCO1	-7	1.29
C#CCOC[C@@H](O)CN(Cc1ccc(C)cc1)C(C)C	-9	1.18
CC(C)Cn1cncc1CNC1CCN(c2ncnc3[nH]cnc23)CC1	8	-1.13
Cc1c(-c2cccc(C(=O)N3CCC(c4nncn4C)CC3)c2)cnn1C	-6	1.1
Cc1nn(Cc2ccccc2)c(Cl)c1CN1CCCCC1	3	-0.4
COCc1cc(=O)n(CC(=O)Nc2cccc(C)c2C)c(N2CCOCC2)n1	35	-1.2
CC(C)c1csc(C(=O)N2CCn3c(C(N)=O)cnc3C2)n1	-15	1.56
NS(=O)(=O)NC1CN(C(=O)CC2CC3CCC2C3)C1 (configuration not stated)	-2	0.21
CCc1nnc(CNC(=O)c2cccc(-c3ccc(C(C)C)nn3)c2)s1	-5	0.68
CC[C@@H](C#N)NC(=O)c1ccc(Br)c(Cl)c1	-15	1.89
COc1ccc(CCNC(=O)C[C@@H]2N=C(O)N(c3ccc(OC)cc3)C2=O)cc1	0	0.04
Cn1ccc(CC(=O)NCCCCN2C(=O)c3ccccc3C2=O)n1	-3	0.51
CCn1nccc1-c1nc(Cc2ccccc2OC)n[nH]1	-11	1.56
CN(CC1CC1)C(=O)C1CCC(=O)N(C2CC2)C1c1ccnn1C (configuration not stated)	-5	0.63

— ChEMBL document CHEMBL4888484, “Replenishing the malaria drug discovery pipeline: Screening and hit evaluation of the MMV Hit Generation Library 1 (HGL1) against asexual blood stage Plasmodium falciparum ,using a nano luciferase reporter read-out” (2022)
